Results are given in words; binding and its absence hold for the method and conditions named. Some binding calls cover weakened binding; strength is not graded here.
How the values were obtained:
[1] = molecular target: α-crystallin domain of HspB7 (B7ACD) (human) (UniProt Q9UBY9); assay: cross-linking; glutaraldehyde 0.008% or 0.024%, ACDs at 3 mg/mL in 25 mM HEPES pH 7.5, 30 min at 30 °C; Tricine–SDS–PAGE; both purified
[2] = molecular target: α-crystallin domain of HspB7 (B7ACD) (human) (UniProt Q9UBY9); assay: dynamic light scattering; 25 °C, 20 mM Tris–acetate pH 7.6, 10 mM NaCl, 0.1 mM EDTA, 0.1 mM PMSF; protein 3.0 mg/mL; particle diameter in the intensity mode; both purified
[3] = molecular target: T1, full-length HspB6 (human) (UniProt O14558); assay: native gel or EMSA; clear native PAGE, 12.5% gel, 80 mM glycine–Tris pH 8.6; sHsp 5–6 μM per monomer mixed with ACD 20–24 μM per monomer, 30 min at 25 °C in buffer B; Western blot with anti-HspB6 for the complexes of HspB6; both purified
T1 sequence: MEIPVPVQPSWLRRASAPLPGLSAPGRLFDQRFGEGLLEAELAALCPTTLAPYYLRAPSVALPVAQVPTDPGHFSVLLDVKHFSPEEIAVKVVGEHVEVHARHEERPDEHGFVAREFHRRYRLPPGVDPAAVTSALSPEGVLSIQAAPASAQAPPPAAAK

Protein sequences, listed by entry. Tags and fused reporters are not part of them. Lines headed by an entry give the natural chain unless they say otherwise; changes in a name come on top. Residues count along the entry.
UniProt Q9UBY9, residues 71-154: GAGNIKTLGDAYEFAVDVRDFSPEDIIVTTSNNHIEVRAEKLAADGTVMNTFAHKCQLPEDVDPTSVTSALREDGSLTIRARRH
UniProt P04792: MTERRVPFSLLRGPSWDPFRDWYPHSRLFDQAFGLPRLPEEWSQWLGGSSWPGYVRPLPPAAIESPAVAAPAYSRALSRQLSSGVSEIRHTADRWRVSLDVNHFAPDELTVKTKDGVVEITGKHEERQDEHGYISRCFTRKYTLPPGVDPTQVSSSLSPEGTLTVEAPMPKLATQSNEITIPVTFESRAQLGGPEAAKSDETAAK

[4] = molecular target: T2, full-length HspB8 (human) (UniProt Q9UJY1); assay: as above
T2 sequence: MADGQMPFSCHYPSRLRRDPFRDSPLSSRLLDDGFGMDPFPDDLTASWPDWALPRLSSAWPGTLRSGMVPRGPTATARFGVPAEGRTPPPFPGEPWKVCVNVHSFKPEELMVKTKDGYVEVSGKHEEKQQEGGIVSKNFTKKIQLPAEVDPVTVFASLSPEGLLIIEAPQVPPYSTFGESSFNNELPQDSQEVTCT

[5] = molecular target: α-crystallin domain of HspB7 (B7ACD) (human) (UniProt Q9UBY9); assay: SEC; Superdex 75 10/300 GL, 50 mM phosphate pH 7.4, 150 mM NaCl, 2 mM DTT; 25 μL samples of 16–150 μg (25–600 μM per monomer); apparent dissociation constant, dimer to monomers, from a hyperbolic fit of elution volume against the concentration loaded; both purified
[6] = molecular target: 3D mutant of HspB1 (S15D, S78D, S82D) (human) (UniProt P04792); assay: condition: full-length ~19–20 μM, ACD 38–110 μM per monomer; SEC; full-length sHsp (~19–20 μM per monomer) mixed with ACD (38–110 μM per monomer) in buffer B, 30 min at 42 °C; Superdex 200 Increase column in 50 mM phosphate pH 7.4, 150 mM NaCl, 2 mM DTT; fractions analysed by SDS–PAGE; both …
[7] = molecular target: full-length HspB1 (human) (UniProt P04792); assay: as above
[8] = molecular target: T3, full-length HspB5 (αB-crystallin) (human) (UniProt P02511); assay: as above
T3 sequence: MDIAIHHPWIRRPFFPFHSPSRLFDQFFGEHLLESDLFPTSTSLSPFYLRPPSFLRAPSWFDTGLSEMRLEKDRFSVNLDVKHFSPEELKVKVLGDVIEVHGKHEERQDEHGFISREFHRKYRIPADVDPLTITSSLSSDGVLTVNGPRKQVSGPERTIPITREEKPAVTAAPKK

[9] = molecular target: full-length HspB1 (human) (UniProt P04792); assay: SEC; full-length sHsp (~19–20 μM per monomer) mixed with ACD (38–110 μM per monomer) in buffer B, 30 min at 42 °C; Superdex 200 Increase column in 50 mM phosphate pH 7.4, 150 mM NaCl, 2 mM DTT; fractions analysed by SDS–PAGE; both purified
[10] = molecular target: T3, full-length HspB5 (αB-crystallin) (human); assay: as above

binding [1]	binding [2]	binding [6]	binding [7]	binding [8]	binding [9]	binding [10]	Substance	binding [3]	binding [4]	binding [5]
no binding (tested: 3 mg/mL)	no binding (tested: 3 mg/mL)	no binding	no binding	no binding			α-crystallin domain of HspB7 (B7ACD) (from UniProt Q9UBY9 71-154) (domain or fragment)	no binding (tested: sHsp 5–6 μM, ACD 20–24 μM per monomer)	no binding (tested: sHsp 5–6 μM, ACD 20–24 μM per monomer)	no binding (tested: 25–600 μM per monomer)
					binds weakly	binds weakly	α-crystallin domain of HspB1 (B1ACD) (from UniProt P04792 84-170) (domain or fragment)			

Reference: PMC9860685
